Assay results: PubChem BioAssay AID686979 (National Center for Advancing Translational Sciences (NCATS), 2013)
Out of some 420,000 compounds screened, about 50,000 (12%) were called active. This list was built around the results that the source calls inconclusive (neither active nor inactive); the mix of calls is not that of the screen. Calls come from the whole dose curve; as a rule, active = well fitted inhibition curve with a large enough effect; inconclusive = small, poorly fitted or top-dose-only effect; inactive = flat fitted curve, though single readings scatter. No potency is given beside an inconclusive call; the fits are too rough.

Assay: qHTS for Inhibitors of human tyrosyl-DNA phosphodiesterase 1 (TDP1): qHTS in cells in presence of CPT; note: nearly all actives have a fitted effect of over 55% in size
Details: chicken DT40 Tdp1-/-;hTDP1 cells + 20 nM CPT, ATP luminescence, 48 h; activity change, negative = growth inhibition: at 46.2 µM (top of the series) unless noted
In short: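 Chicken DT40 Tdp1-/- cells complemented with human TDP1, 400 cells/well, exposed to compounds plus 20 nM camptothecin for at least 48 h at 37 C; viability read as ATP content by CellTiter-Glo luminescence.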
% is set by controls: 0 for no effect and ±100 for the full control effect; potency is the fitted concentration of half-maximal effect; tags give direction and shape of the fitted curve.

| SMILES | Potency | activity change, negative = growth inhibition |
| --- | --- | --- |
| CCSc1ncc(Cl)c(C(=O)N(Cc2ccc(N(C)C)cc2)Cc2ccco2)n1 | inconclusive [inhibitor, single point] |  |
| CCN(CC)CCN(Cc1cc2ccc(C)cc2[nH]c1=O)C(=O)NC1CCCCC1 | inactive |  |
| O=C(Nc1ccccc1)c1cc(C2CCCN(C(=O)C/C=C/c3ccccc3)C2)on1 (stereo not drawn) | inconclusive [inhibitor, single point] |  |
| COC(=O)c1cc(S(=O)(=O)NCC2CCN(Cc3ccc(F)cc3)CC2)c[nH]1 | inactive |  |
| CC1(C)CC(NC(=O)C2CCN(S(=O)(=O)c3ccc(F)cc3)CC2)CC(C)(C)N1 | inactive |  |
| Cc1cc(C)c(Cn2ncn(-c3ccc(Br)cc3)c2=O)c(C)c1 | inactive |  |
| CCCn1c(C2CCCN2c2nc(-c3cccc(Br)c3)cs2)nc2cc(Cl)c(Cl)cc21 (stereo not drawn) | inconclusive [inhibitor, single point] |  |
| CCOc1ccc(Cn2c(-c3ccc(OCC)c(OC)c3)nc3ccccc32)cc1OC | inactive |  |
| Cc1ccc2nc(-c3ccccn3)oc2c1 | inconclusive [inhibitor, single point] |  |
| O=C(N/N=C/c1ccccn1)c1cccc([N+](=O)[O-])c1 | inconclusive [inhibitor, single point] |  |
| CCCCC(=O)NC(c1ccc(OC)c(OC)c1)c1c(O)ccc2ccccc12 (stereo not drawn) | inactive |  |
| COc1ccc(-c2noc(-c3ccccc3-c3ccccc3)n2)cc1OC | inconclusive [inhibitor, single point] |  |
| CCCCOCCCNC(=O)C[C@@H]1C[C@@]2(C(=O)OCC)CCC=C2N(Cc2ccccc2)C1=O | inconclusive [inhibitor, single point] |  |
| Cc1cc(C(=O)COc2ncnc3sccc23)c(C)n1C1CC1 | inconclusive [inhibitor, partial curve] |  |
| COC(=O)CNc1nc(-c2ccncc2)nc2ccccc12 | inactive |  |
| Cc1cccc(NC(=O)c2cc(-c3ccc4c(c3)OCCO4)on2)c1 | active: 23.1 µM |  |
| Cc1cc(NCc2ccccc2Cl)n2cnnc2n1 | active: 11.6 µM |  |
| COc1ccc(CCN(C)C(=O)c2cc(-c3ccccc3)nc3ccc(C)cc23)cc1OC | inconclusive [inhibitor, single point] |  |
| CCOC(=O)c1ccc(N2CCOCC2)c(NC(=O)c2nccnc2C(=O)O)c1 | inactive |  |
| COC(=O)C(C)Nc1cccc(Br)c1 (stereo not drawn) | inactive |  |
| CC1CCN(C(=O)c2ccc(COc3ccccc3Cl)o2)CC1 | inconclusive [inhibitor, single point] |  |
| CC12CCC(C(=O)N3CCC(Cc4ccccc4)CC3)(C(=O)C1=O)C2(C)C (stereo not drawn) | inactive |  |
| CCOc1cc(C2Nc3ccccc3C(=O)N2Cc2ccco2)ccc1OCc1ccccc1Cl (stereo not drawn) | active: 10 µM |  |
| CCOC(=O)c1nnn2c1nc(N1CCN(c3ccccc3)CC1)c1ccccc12 | inconclusive [inhibitor, single point] |  |
| CC(=O)[C@@H]1[C@@H]2C(=O)N(c3ccccc3F)C(=O)[C@@H]2[C@H]2c3ccccc3C=NN12 | inactive |  |

| SMILES | Potency | activity change, negative = growth inhibition |
| --- | --- | --- |
| COc1ccc(Cl)cc1Cn1c(C)c(C(=O)NCc2cccc(Cl)c2)sc1=O | active: 14.6 µM |  |
| COc1ccc(/C(C)=N/NC(=O)CNC(=O)/C=C/c2ccccc2OC)cc1 | inconclusive [inhibitor, single point] |  |
| Cc1onc(-c2c(Cl)cccc2Cl)c1C(=O)N/N=C(\N)COc1ccc(Cl)cc1 | active: 5.17 µM |  |
| Cc1ccc(-c2nc(-c3cc4cccc(OCc5ccc(F)cc5)c4oc3=O)no2)cc1 | inconclusive [inhibitor, partial curve] |  |
| COC(=O)C1=C(C)N(c2ccc(Cl)cc2)/C(=C/c2cccs2)C1=O |  | inconclusive: -21.8% [inhibitor] |
| CN(C)Cc1nc2c(c(=O)[nH]1)C1(CCCCC1)Cc1ccccc1-2 | active: 18.4 µM |  |
| Cc1ccc2c(c1)nnn2C1CCN(C(=O)C23CC4CC(CC(C4)C2)C3)CC1 | inconclusive [inhibitor, single point] |  |
| O=C(COC(=O)c1ccco1)NCc1ccc(Cl)cc1Cl | inactive |  |
| O=C(CSc1nc(Nc2ccccc2)nc(N2CCOCC2)n1)Nc1cccc([N+](=O)[O-])c1 | inconclusive [inhibitor, single point] |  |
| Cc1ccc(O)c2ncccc12 | inconclusive [inhibitor, partial curve, poor fit] |  |
| CCOC(=O)c1sc(=NC(=O)c2ccc(Br)cc2)n(C)c1C | inactive |  |
| Cc1occc1-c1nnc(SCC(=O)c2ccc(F)cc2)n1Cc1ccco1 | inconclusive [inhibitor, single point] |  |
| COC(=O)C1=C(O)/C(=C\c2ccc(OCC(=O)Nc3ccccc3OC)cc2)N=C1C | inconclusive [inhibitor, single point] |  |
| Cc1ccc(S(=O)(=O)N(C)c2ccc(C(=O)Nc3cccc(C)n3)cc2)cc1 | inconclusive [inhibitor, single point] |  |
| Cc1cccc(C)c1NC(=O)Nc1nc(C(N)c2ccccc2Cl)cs1 (stereo not drawn) | inconclusive [inhibitor, single point] |  |
| CCCCn1nnnc1C(CCc1ccccc1)N1CCN(C/C=C/c2ccccc2)CC1 (stereo not drawn) | inconclusive [inhibitor, single point] |  |
| Cc1ccc(NC(=O)CSc2nc(-c3ccc(C(C)(C)C)cc3)nc3cc(=O)[nH]n23)cc1C | inconclusive [inhibitor, partial curve, poor fit] |  |
| COc1cccc2c(N/N=C/c3ccc(O)c(O)c3)cc(C)nc12 | inactive |  |
| CCOCCCNC(=S)N(Cc1ccco1)Cc1cc2cc3c(cc2[nH]c1=O)OCCO3 | inconclusive [inhibitor, single point] |  |
| Cc1ccccc1NC(=S)NCC1CCN(C(C)c2ccccc2)C1 (stereo not drawn) |  | inconclusive: -34% [inhibitor] |
| C/C(=N\NC(=O)c1cc(C)oc1C)c1ccc(C)c([N+](=O)[O-])c1 | inconclusive [inhibitor, partial curve] |  |
| C[C@H](CO)N1C[C@H](C)[C@@H](CN(C)S(=O)(=O)c2ccc(F)cc2)Oc2c(NC(=O)CCC(F)(F)F)cccc2C1=O |  | inconclusive: -30.7% [inhibitor] |
| CC(C)Oc1ccc(CNC(=O)CCC(=O)N2CCSc3ccccc32)cc1 | inactive |  |
| O=C(NCC1CCCO1)c1ccc([N+](=O)[O-])o1 (stereo not drawn) | inconclusive [inhibitor, single point] |  |
| CC(=O)c1ccc(-c2ccc3c4c(ccc3c2)OC(CNC(=O)[C@@H]2CCCN2C(C)=O)C4)s1 (stereo partly drawn) | inconclusive [inhibitor, single point] |  |

| SMILES | Potency | activity change, negative = growth inhibition |
| --- | --- | --- |
| CCc1ccccc1NC(=O)C1CCN(C(=O)N2CCOc3ccccc32)CC1 | inconclusive [inhibitor, partial curve] |  |
| COc1ccccc1NC(=S)NC(=O)Cc1ccc(Cl)cc1 | inconclusive [inhibitor, single point] |  |
| CCO[C@H]1OC(C(=O)N2CCN(Cc3ccccc3)CC2)=C[C@@H](C)[C@@H]1CCCO | inconclusive [inhibitor, single point] |  |
| N/C(=N\OC(=O)c1ccccc1Cl)c1ccccn1 | inconclusive [inhibitor, partial curve] |  |
| CC(CNC(=O)c1ccc(CSc2nc3ccncc3n2Cc2ccc(F)cc2)cc1)c1ccccc1 (stereo not drawn) | inactive |  |
| CCN1CCc2nc3sc(C(=O)c4ccccc4)c(N)c3cc2C1 | active: 2.59 µM |  |
| CC(C)CCOC(=O)C(C)Sc1n[nH]c(=O)[nH]c1=O (stereo not drawn) | inactive |  |
| Cc1cccc(C)c1NC(=O)CNC(=O)c1ccncc1 | inactive |  |
| CCCCN1C[C@H](Cc2ccccc2)[C@@H](CC(=O)Nc2ccc(OC)cc2)C1=O | inactive |  |
| CN(C)c1ccc(NC(=O)CN2C(=O)CC(c3ccccc3)=Nc3ccccc32)cc1 | inactive |  |
| COc1ccc(CCNC(=O)c2cccnc2)cc1 | inactive |  |
| COc1ccc(/C=C\C(=O)NCc2ccc3[nH]c(C)cc3c2)cc1OC | inconclusive [inhibitor, single point] |  |
| Cn1nccc1C(=O)Nc1ccc2c(c1)OCCO2 | inconclusive [inhibitor, full curve, poor fit] |  |
| COc1ccc(/C=C(\C#N)c2nc3ccccc3[nH]2)cc1O | active: 14.6 µM |  |
| CC12CC[C@@](C(=O)O)(C(=O)C1=O)C2(C)C |  | inactive: 19.7% [at 9.04 µM] |
| CCCCOC(=O)c1ccc(NC(=O)C(=O)NCC2CCCO2)cc1 (stereo not drawn) |  | inconclusive: -32.6% [inhibitor] |
| Cc1ccc(N(C(=O)c2nsc(Cl)c2Cl)C(C(=O)NC2CCCC2)c2ccc(O)cc2)cc1C (stereo not drawn) | inconclusive [inhibitor, single point] |  |
| COc1ccc(NC(=O)CSc2nc3ccccc3nc2N2CCOCC2)cc1 | inactive |  |
| COc1ccc2nc(NC(=O)CS(=O)(=O)c3ccc(C)cc3)sc2c1 | inconclusive [inhibitor, single point] |  |
| COc1ccc(Nc2cc(C)c3ccc(O)cc3n2)cc1 | active: 23.1 µM |  |
| O=C(CSc1nc2nc(-c3cccs3)cc(C(F)(F)F)c2c(=O)[nH]1)Nc1ccc(F)c(F)c1 | active: 6.51 µM |  |
| C/C(=N\NC(=O)c1ccccc1OCCOc1ccccc1)c1ccccc1F | inconclusive [inhibitor, single point] |  |
| COc1ccc(NC(=O)[C@@H]2O[C@H](CO)[C@H](O)[C@H](O)[C@H]2O)cc1F | inactive |  |
